The DeepSol protein solubility set

Assay: soluble on expression in E. coli; label from the status in PepcDB or PDB records

Sequence	soluble on expression in E. coli
MKLLEQIEKWAAETPDQTAFVWRDAKITYKQLKEDSDALAHWISSEYPDDRSPIMVYGHMQPEMIINFLGCVKAGHAYIPVDLSIPADRVQRIAENSGAKLLLSATAVTVTDLPVRIVSEDNLKDIFFTHKGNTPNPEHAVKGDENFYIIYTSGSTGNPKGVQITYNCLVSFTKWAVEDFNLQTGQVFLNQAPFSFDLSVMDIYPSLVTGGTLWAIDKDMIARPKDLFASLEQSDIQVWTSTPSFAEMCLMEASFSESMLPNMKTFLFCGEVLPNEVARKLIERFPKATIMNTYGPTEATVAVTGIHVTEEVLDQYKSLPVGYCKSDCRLLIMKEDGTIAPDGEKGEIVIVGPSVSVGYLGSPELTEKAFTMIDGERAYKTGDAGYVENGLLFYNGRLDFQIKLHGYRMELEEIEHHLRACSYVEGAVIVPIKKGEKYDYLLAVVVPGEHSFEKEFKLTSAIKKELNERLPNYMIPRKFMYQSSIPMTPNGKVDRKKLLSEVTALEHHHHHH	soluble
MSVDPACPQSLPCFEASDCKESSPMPVICGPEENYPSLQMSSAEMPHTETVSPLPSSMDLLIQDSPDSSTSPKGKQPTSAENSVAKKEDKVPVKKQKTRTVFSSTQLCVLNDRFQRQKYLSLQQMQELSNILNLSYKQVKTWFQNQRMKSKRWQKNNWPKNSNGVTQKASAPTYPSLYSSYHQGCLVNPTGNLPMWSNQTWNNSTWSNQTQNIQSWSNHSWNTQTWCTQSWNNQAWNSPFYNCGEESLQSCMQFQPNSPASDLEAALEAAGEGLNVIQQTTRYFSTPQTMDLFLNYSMNMQPEDV	not soluble
